# Results: PubChem BioAssay AID2546 (National Center for Advancing Translational Sciences (NCATS), 2010)
# Hit rate of the full screen: of about 310,000 compounds, about 11,000 (3.5%) were called active. This list was built around the results that the source calls inconclusive (neither active nor inactive); the mix of calls is not that of the screen. The call rests on the fitted dose curve; in most records, active means well fitted inhibition curve with a large enough effect; inconclusive means small, poorly fitted or top-dose-only effect, or effect the other way; inactive means flat fitted curve, though single readings scatter. No potency is given beside an inconclusive call; the fits are too rough.
# Assay: VP16 counterscreen qHTS for inhibitors of ROR gamma transcriptional activity;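 further: Gal4-VP16 expression switched on by copper sulfate through the metallothionein promoter; nearly all actives have a fitted effect of over 50% in size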
# Details: Drosophila S2 Gal4-VP16 UAS-luciferase, luminescence, 20 h; activity, negative = inhibition: at 53.6 µM (top of the series)
# On the % scale 0 is the no-effect control and ±100 the full control effect; potency means the concentration at half of the fitted maximal effect; tags describe the fitted curve by direction and shape.
Structure (SMILES),Potency,"activity, negative = inhibition"
O=C(Nc1cccc(OC(F)(F)F)c1)c1ccc(Br)o1,"inconclusive [inhibitor, partial curve]",
CCc1ccc(C(O)(CNCc2ccccc2)c2ccccc2)cc1 (configuration not stated),active: 12.6 µM,
COc1ccc(NC(=S)N2CCN(c3ccccc3)CC2)c(OC)c1,,inactive: -2.08%
Cc1cccc(NC(=O)/C=C/c2ccc(Cl)cc2)n1,active: 7.08 µM,
CCn1c(NC(=O)c2nn(C)cc2Br)nc2ccccc21,active: 5.01 µM,
Cc1cccc(-c2nnnn2-c2cccc(C)c2)c1,"inconclusive [inhibitor, single point]",
CN1c2ccccc2C(C)(C)C12CC(c1ccc(Cl)c(S(=O)(=O)N3CCCC3)c1)=NO2 (configuration not stated),"inconclusive [inhibitor, partial curve]",
Cc1cc2oc3c(c(=O)c2cc1C)C(c1ccc(C(C)C)cc1)N(CCCN1CCOCC1)C3=O (configuration not stated),"inconclusive [inhibitor, single point]",
Cc1ccc2c(c1)CCCN2C(=O)Nc1ccc2c(c1)OCO2,"inconclusive [inhibitor, single point]",
COc1ccc(C(=O)NC(=S)Nc2ccc([N+](=O)[O-])cc2C)cc1OC,"inconclusive [inhibitor, single point]",
CC(C)CNC(=O)c1cc(-c2ccc3c(c2)OCO3)on1,"inconclusive [inhibitor, single point]",
CCOC(=O)c1c(C)[nH]sc1=S,"inconclusive [inhibitor, single point]",
Cc1ccc(S(=O)(=O)Nc2cc(=O)[nH]c(SCc3ccc(Cl)cc3)n2)cc1,,inactive: 0.393%
CCc1nnc(NS(=O)(=O)c2ccc(N/C=C\C(=O)c3ccc4ccccc4c3)cc2)s1,,inactive: -5.09%
CC(C)COCC(O)CCC(=O)NNC(=S)Nc1ccccc1 (configuration not stated),active: 1 µM,
COc1cc(/C=N/NC(=S)NCc2ccco2)cc(OC)c1OC,"inconclusive [inhibitor, single point]",
OCc1c(OCc2cccc(F)c2)ccc2ccccc12,"inconclusive [activator, single point]",
Cc1cc2cc(C=C(C#N)C#N)c(Cl)nc2cc1C,"inconclusive [inhibitor, single point]",
O=C(Nc1ccc(Br)cn1)c1cccc(C(=O)Nc2ccc(Br)cn2)c1,active: 1.26 µM,
O=C(NC(=S)Nc1nc(-c2cccc3ccccc23)cs1)c1cc2ccccc2o1,"inconclusive [inhibitor, single point]",
C/C(CCN1CCCc2nc(C)c(C)cc21)=N\O[C@@H](C)CN1CCCCc2nc(C)c(C)cc21,,inactive: -6.33% [at 10 µM]
CSc1nsc(SCC(=O)Nc2nc3ccc(C)cc3s2)n1,"inconclusive [inhibitor, single point]",
CCC(C(=O)OC)n1cnc2scc(-c3ccc(C)c(C)c3)c2c1=O (configuration not stated),"inconclusive [inhibitor, single point]",
CCOc1ccc(NC(=S)N2c3ccccc3CC2C)cc1 (configuration not stated),"inconclusive [inhibitor, single point]",

Structure (SMILES),Potency,"activity, negative = inhibition"
NNC(=O)c1cccc(COc2ccc3c(c2)CCC3)c1,active: 5.01 µM,
CCOc1ccc(C(=O)Nc2ccccc2C(=O)O)cc1,"inconclusive [inhibitor, single point]",
COc1ccc(/C=C/C(=O)Nc2c(C)nn(C)c2C)cc1COc1ccc(Br)cc1,"inconclusive [inhibitor, single point]",
COc1ccc(C2Nc3cccc4cccc(c34)N2)cc1,,inactive: 0.0256%
O=C(NNC(=O)c1cnccn1)c1ccc(Cl)cc1,active: 15.8 µM,
O=C(NC(=S)Nc1ccc(N2CCOCC2)c(Cl)c1)C(c1ccccc1)c1ccccc1,active: 5.62 µM,
Cc1nc(SCC(=O)Nc2cc(Cl)ccc2[N+](=O)[O-])nc(C)c1C,"inconclusive [activator, single point]",
CCn1c2ccc(C)cc2c2n[nH]c(=S)nc21,active: 3.16 µM,
O=C(N/N=C/c1ccncc1)c1cc(-c2ccc(Br)s2)[nH]n1,"inconclusive [inhibitor, full curve, poor fit]",
CCN(CC)C(=O)COC(=O)c1ccc(C)c(NC(=O)c2ccco2)c1,,inactive: 1.1%
Cc1onc(-c2c(F)cccc2Cl)c1C(=O)Nc1nc2c(s1)CCCC2,"inconclusive [inhibitor, single point]",
CC(=O)C(C(C)=O)c1c(Cl)c(O)c(O)c2c(C(=O)c3ccccc3)coc12,"inconclusive [inhibitor, single point]",
COc1cc2c(cc1NC(=O)CN(C)Cc1cccc(OC)c1OC)oc1ccccc12,"inconclusive [inhibitor, single point]",
O=C(/C=C/Sc1ccccc1)c1ccccc1,"inconclusive [inhibitor, single point]",
O=C(COc1ccccc1)N/N=C/c1ccc([N+](=O)[O-])o1,active: 15.8 µM,
Oc1ccc(CN2CCCc3ccccc32)c2cccnc12,active: 12.6 µM,
CC1CN=C(NC(=O)c2cccc([N+](=O)[O-])c2)S1 (configuration not stated),"inconclusive [inhibitor, single point]",
O=C(NCC1CCCO1)C1CCN(S(=O)(=O)c2cccc3cccnc23)CC1 (configuration not stated),"inconclusive [inhibitor, single point]",
Cc1ccc2sc(-c3ccc(NC(=O)CCN4C(=O)c5ccccc5C4=O)cc3)nc2c1,"inconclusive [inhibitor, full curve]",
CC(=O)Oc1ccc(C(=O)Nc2cc(NC(=O)c3ccc(OC(C)=O)cc3)cc(C(=O)NC(C)(C)C)c2)cc1,"inconclusive [inhibitor, single point]",
O=C(NCCc1ccc(Cl)cc1)C1CCC(CNc2nc(=S)[nH]c3ccccc23)CC1 (configuration not stated),"inconclusive [inhibitor, single point]",
N#Cc1c(N)n(CCNC(=O)c2ccc(Cl)cc2)c2nc3ccccc3nc12,,inactive: -18.8%
Nc1c(C(=O)N/N=C/c2ccccc2)cnn1-c1ccccc1,"inconclusive [activator, partial curve, poor fit]",
Cc1cc2c(SCC(=O)NCC3CCCO3)ncnc2s1 (configuration not stated),"inconclusive [activator, single point]",

Structure (SMILES),Potency,"activity, negative = inhibition"
COc1ccc(C(C(=O)NC(C)(C)C)N(CCC(C)C)C(=O)CCC(=O)Nc2cc(C)on2)cc1 (configuration not stated),,inactive: 12.8%
COC(=O)c1cccc(NC(=O)CSc2nc3cccnc3n2C)c1,"inconclusive [inhibitor, single point]",
COc1cccc(NC(=S)N2CCc3cc(OC)c(OC)cc3C2)c1,,inactive: -1.66%
CC1=CN2C(=N)/C(=C/c3ccc([N+](=O)[O-])o3)C(=O)N=C2S1,active: 5.01 µM,
COC(=O)CNC(=O)C1(C)C=CCN1C(=O)c1ccccc1 (configuration not stated),"inconclusive [activator, single point]",
CCN(CC)CCOc1nnc(-c2ccc(C)cc2)c2ccccc12,"inconclusive [inhibitor, single point]",
CCc1nc2c(cnn2-c2ccc(F)cc2)c(=O)n1-c1ccc(N2CCC(C)CC2)cc1,"inconclusive [inhibitor, single point]",
O=C(O)CCc1nc(-c2ccccc2)no1,,inactive: 0.351%
COc1ccc(CCc2nnc(CCC(=O)N(C)Cc3ccnc4ccccc34)o2)cc1,"inconclusive [inhibitor, single point]",
CC(C)OC(=O)CSc1nnc(CNc2ccc(Cl)cc2)n1Cc1ccccc1,"inconclusive [inhibitor, single point]",
Cc1cccc(NC(=O)/C=C/c2ccc3c(c2)OCO3)n1,"inconclusive [inhibitor, single point]",
CCC(Sc1nnc(-c2ccc(C)c(Cl)c2)n1CC)C(=O)Nc1nccs1 (configuration not stated),"inconclusive [inhibitor, single point]",
CCC(C)NS(=O)(=O)c1ccc(S(=O)(=O)N2CCCC3(CCCCC3)C2)cc1 (configuration not stated),"inconclusive [inhibitor, single point]",
COc1ccccc1NC(=O)Cc1coc2cc(C)ccc12,"inconclusive [inhibitor, single point]",
COc1cccc(-c2ccc(NC(=O)C3CCCN(Cc4cnc(N(C)C)s4)C3)cc2)c1 (configuration not stated),,inactive: 0.861%
COC(=O)c1ccc(/C=C(\C#N)C(=O)NC(C)c2ccccc2)cc1 (configuration not stated),active: 4.47 µM,
CCOc1ccc(NS(=O)(=O)c2csc(C(N)=O)c2)cc1,,inactive: -16.7%
CC1(NC(=O)CCc2nc3ccccc3c(=O)[nH]2)CCS(=O)(=O)C1 (configuration not stated),,inactive: -1.78%
NS(=O)(=O)c1cc2c(cc1Cl)NC(Cc1ccccc1)NS2(=O)=O (configuration not stated),,inactive: 3.74%
O=C(Nc1ncc(Cc2ccccc2Cl)s1)c1ccc([N+](=O)[O-])cc1,active: 2.82 µM,
CCOc1ccc(NC(=S)N(CCc2c(C)[nH]c3ccc(C)cc23)Cc2ccco2)cc1,"inconclusive [inhibitor, single point]",
COC(=O)c1ccc(/C=C/c2ccc3cccc(OC(C)=O)c3n2)cc1,active: 3.55 µM,
COc1cc(NC(=O)c2cc([N+](=O)[O-])ccc2Br)ccc1NC(=O)c1ccco1,"inconclusive [inhibitor, single point]",
CC(C)(C)c1ccccc1OCC(=O)Nc1ncn[nH]1,"inconclusive [inhibitor, single point]",
